Test results published in PubChem BioAssay AID651557 (The Scripps Research Institute Molecular Screening Center, 2012).
Not every entry of the source has a single result; some have several. Only these are listed.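 The calls were made as follows: active = IC50 half-maximal inhibitory concentration at most 10 µM; inactive = IC50 above 10 µM.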 The source may hold further records. Values that stand side by side are repeated measurements across runs, samples, wells, individuals or studies. Brackets tell where a record comes from. Letters count within one entry.

Biological target: Melanocortin receptor 4 (Homo sapiens) (UniProt P32245)
UniProt P32245, sequence (P32245 whole entry, looked up): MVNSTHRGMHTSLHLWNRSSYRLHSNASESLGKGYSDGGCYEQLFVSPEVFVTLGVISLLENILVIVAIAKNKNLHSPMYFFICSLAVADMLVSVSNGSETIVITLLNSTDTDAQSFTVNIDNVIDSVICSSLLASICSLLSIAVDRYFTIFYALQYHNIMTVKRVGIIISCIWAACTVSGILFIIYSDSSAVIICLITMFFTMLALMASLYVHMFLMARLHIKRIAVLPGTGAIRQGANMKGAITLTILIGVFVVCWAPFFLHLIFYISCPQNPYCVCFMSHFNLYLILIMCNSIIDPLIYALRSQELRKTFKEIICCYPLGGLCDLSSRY
Assay: inhibition of agonist-driven MC4R beta-arrestin coupling – luminescence, biased ligand project, U2OS cells, late-stage follow-up (AID 651557)
Conditions: U2OS MC4R beta-arrestin recruitment, beta-gal complementation luminescence

## CCC1CCCCN1S(=O)(=O)c1ccc(NC(=O)c2nc(S(C)(=O)=O)ncc2Cl)cc1 (stereo unspecified)
  IC50: 2.93 µM [sample A] and inactive [sample B]
